The text below walks through data of publication PMC3380004.

By UniProt entry, the sequences of proteins in these tests, tags left out. Where a name states a change or a piece, a line headed by the entry shows the natural chain unless it says otherwise. Chains listed by the source or under a name are the forms on record and can include a tag or linker. Residues count along the entry.
UniProt Q9EPN1: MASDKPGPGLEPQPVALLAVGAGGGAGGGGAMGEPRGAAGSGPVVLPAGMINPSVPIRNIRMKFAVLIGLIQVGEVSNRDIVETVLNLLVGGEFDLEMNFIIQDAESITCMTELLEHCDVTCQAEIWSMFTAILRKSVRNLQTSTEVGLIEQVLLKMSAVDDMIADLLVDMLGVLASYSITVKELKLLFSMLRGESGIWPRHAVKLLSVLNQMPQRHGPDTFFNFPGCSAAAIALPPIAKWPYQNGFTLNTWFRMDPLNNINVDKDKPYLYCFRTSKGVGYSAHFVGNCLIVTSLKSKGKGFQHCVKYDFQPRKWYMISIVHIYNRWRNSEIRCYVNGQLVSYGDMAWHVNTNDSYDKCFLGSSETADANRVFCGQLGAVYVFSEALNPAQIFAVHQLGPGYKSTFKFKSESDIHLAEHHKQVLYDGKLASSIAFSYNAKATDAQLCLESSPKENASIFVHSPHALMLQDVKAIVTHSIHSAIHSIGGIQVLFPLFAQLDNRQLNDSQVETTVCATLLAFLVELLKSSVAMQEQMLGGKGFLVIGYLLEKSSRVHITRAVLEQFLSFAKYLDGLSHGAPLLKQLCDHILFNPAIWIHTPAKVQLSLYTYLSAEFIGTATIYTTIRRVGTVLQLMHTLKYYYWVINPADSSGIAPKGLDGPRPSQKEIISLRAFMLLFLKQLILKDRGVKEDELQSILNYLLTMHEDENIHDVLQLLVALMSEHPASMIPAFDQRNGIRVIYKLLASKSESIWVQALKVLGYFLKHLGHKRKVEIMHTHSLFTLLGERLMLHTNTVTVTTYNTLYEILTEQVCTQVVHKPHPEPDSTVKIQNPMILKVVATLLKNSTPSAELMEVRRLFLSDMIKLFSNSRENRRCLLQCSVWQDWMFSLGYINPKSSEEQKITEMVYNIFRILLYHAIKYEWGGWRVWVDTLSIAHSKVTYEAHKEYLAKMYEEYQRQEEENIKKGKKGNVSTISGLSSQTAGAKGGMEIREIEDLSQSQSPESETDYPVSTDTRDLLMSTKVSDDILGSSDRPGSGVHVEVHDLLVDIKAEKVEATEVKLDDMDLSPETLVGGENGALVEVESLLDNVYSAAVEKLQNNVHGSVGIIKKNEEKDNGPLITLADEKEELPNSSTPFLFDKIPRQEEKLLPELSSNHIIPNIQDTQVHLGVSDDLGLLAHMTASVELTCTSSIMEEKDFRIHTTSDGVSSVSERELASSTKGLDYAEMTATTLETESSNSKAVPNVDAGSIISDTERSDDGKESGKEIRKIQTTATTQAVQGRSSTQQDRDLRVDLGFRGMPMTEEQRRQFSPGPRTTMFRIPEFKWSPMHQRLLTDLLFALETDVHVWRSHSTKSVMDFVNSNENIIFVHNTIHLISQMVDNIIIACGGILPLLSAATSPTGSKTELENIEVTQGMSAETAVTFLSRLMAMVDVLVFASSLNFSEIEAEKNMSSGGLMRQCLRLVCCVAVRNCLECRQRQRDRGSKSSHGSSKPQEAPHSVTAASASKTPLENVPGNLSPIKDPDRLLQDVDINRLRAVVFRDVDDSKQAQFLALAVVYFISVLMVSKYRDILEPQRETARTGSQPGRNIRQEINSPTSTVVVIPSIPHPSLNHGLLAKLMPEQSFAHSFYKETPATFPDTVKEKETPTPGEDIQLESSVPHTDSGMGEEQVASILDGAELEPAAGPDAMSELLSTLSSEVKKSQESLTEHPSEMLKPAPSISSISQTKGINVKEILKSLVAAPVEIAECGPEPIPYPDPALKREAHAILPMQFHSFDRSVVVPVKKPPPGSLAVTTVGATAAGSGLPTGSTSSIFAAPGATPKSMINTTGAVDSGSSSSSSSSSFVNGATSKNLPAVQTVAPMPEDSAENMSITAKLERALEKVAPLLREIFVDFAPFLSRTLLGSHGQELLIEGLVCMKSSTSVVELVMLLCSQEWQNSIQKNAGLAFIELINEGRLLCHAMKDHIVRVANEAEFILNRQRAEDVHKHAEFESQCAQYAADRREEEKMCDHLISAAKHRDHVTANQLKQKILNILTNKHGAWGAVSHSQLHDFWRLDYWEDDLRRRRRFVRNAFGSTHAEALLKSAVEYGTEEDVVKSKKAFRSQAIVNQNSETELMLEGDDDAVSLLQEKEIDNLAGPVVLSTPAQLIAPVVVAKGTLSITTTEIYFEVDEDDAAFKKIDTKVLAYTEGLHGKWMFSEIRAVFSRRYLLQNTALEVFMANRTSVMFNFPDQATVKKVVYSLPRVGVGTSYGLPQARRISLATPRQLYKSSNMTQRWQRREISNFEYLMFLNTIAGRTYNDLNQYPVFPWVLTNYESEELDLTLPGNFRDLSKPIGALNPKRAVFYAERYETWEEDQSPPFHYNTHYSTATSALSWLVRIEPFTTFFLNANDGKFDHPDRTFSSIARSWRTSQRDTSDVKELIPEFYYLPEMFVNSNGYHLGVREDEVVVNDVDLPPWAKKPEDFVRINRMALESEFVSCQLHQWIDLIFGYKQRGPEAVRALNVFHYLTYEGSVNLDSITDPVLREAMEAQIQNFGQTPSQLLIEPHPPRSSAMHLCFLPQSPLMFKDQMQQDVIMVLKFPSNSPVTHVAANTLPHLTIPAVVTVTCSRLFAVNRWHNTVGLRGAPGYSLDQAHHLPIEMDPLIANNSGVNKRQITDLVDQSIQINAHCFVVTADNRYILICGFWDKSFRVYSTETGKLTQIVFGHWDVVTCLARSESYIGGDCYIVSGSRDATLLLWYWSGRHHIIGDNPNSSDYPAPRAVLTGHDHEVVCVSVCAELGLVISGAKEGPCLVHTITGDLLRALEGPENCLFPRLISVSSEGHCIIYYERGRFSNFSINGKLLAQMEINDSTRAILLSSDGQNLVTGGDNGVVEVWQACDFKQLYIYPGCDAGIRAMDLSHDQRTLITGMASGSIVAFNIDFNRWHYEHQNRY
GFP-Duf, PH, BEACH, WD40: residues 1956-2936 of Q9EPN1
GFP-BEACH: residues 2264-2553 of Q9EPN1
C-terminal part of Nbea (Duf, PH, BEACH, WD40) fused to GFP, E2090K (Q9EPN1-1, form named): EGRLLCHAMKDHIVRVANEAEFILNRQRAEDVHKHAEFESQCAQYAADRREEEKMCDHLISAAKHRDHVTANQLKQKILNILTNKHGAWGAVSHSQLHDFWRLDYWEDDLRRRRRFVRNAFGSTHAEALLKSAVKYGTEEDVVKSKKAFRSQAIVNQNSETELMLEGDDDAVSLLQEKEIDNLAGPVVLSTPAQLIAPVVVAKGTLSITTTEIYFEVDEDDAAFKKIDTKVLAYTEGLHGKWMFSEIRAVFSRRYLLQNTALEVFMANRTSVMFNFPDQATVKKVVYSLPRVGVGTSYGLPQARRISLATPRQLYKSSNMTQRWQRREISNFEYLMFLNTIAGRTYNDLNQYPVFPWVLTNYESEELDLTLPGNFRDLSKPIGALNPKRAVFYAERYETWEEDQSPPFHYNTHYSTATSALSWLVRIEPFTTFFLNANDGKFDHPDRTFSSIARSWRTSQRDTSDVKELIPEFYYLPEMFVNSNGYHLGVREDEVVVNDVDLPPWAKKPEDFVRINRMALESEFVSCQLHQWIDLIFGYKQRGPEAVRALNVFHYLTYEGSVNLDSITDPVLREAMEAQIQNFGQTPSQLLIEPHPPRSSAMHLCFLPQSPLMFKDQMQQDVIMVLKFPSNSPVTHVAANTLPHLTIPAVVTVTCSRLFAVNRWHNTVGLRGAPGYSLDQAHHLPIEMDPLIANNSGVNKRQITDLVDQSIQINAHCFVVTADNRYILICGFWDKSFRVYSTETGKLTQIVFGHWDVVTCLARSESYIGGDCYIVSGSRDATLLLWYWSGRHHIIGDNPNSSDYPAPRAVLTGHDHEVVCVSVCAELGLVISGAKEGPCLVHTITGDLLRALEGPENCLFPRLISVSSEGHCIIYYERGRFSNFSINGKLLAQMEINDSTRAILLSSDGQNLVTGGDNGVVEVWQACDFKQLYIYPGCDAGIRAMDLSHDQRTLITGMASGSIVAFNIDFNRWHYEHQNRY
C-terminal part of Nbea (Duf, PH, BEACH, WD40) fused to GFP, E2218R (Q9EPN1-1, form named): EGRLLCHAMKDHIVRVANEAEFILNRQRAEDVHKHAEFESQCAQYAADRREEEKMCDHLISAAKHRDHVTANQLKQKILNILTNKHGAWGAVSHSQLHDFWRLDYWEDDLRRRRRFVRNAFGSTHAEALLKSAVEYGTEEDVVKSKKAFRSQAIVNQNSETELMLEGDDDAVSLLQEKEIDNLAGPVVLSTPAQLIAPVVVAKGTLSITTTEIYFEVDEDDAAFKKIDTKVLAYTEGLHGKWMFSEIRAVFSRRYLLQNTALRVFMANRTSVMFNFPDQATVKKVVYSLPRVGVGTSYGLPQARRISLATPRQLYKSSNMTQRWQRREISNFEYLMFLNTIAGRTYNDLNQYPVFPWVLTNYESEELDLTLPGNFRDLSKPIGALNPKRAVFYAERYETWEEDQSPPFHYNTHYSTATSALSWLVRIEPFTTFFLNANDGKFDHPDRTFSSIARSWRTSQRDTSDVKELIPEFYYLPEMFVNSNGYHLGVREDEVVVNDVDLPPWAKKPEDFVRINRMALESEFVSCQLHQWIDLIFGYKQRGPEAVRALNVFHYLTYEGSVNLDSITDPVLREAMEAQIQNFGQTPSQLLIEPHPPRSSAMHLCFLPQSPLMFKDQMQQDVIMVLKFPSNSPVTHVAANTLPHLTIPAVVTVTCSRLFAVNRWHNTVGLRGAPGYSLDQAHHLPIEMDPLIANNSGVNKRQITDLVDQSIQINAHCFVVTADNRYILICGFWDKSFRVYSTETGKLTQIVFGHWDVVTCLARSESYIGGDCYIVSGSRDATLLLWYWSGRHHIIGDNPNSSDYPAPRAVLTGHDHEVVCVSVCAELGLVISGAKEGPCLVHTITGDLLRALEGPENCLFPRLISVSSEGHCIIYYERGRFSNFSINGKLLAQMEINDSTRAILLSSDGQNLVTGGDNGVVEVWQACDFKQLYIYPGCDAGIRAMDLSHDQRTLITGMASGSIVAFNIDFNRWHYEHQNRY
C-terminal part of Nbea (Duf, PH, BEACH, WD40) fused to GFP, E2447R (Q9EPN1-1, form named): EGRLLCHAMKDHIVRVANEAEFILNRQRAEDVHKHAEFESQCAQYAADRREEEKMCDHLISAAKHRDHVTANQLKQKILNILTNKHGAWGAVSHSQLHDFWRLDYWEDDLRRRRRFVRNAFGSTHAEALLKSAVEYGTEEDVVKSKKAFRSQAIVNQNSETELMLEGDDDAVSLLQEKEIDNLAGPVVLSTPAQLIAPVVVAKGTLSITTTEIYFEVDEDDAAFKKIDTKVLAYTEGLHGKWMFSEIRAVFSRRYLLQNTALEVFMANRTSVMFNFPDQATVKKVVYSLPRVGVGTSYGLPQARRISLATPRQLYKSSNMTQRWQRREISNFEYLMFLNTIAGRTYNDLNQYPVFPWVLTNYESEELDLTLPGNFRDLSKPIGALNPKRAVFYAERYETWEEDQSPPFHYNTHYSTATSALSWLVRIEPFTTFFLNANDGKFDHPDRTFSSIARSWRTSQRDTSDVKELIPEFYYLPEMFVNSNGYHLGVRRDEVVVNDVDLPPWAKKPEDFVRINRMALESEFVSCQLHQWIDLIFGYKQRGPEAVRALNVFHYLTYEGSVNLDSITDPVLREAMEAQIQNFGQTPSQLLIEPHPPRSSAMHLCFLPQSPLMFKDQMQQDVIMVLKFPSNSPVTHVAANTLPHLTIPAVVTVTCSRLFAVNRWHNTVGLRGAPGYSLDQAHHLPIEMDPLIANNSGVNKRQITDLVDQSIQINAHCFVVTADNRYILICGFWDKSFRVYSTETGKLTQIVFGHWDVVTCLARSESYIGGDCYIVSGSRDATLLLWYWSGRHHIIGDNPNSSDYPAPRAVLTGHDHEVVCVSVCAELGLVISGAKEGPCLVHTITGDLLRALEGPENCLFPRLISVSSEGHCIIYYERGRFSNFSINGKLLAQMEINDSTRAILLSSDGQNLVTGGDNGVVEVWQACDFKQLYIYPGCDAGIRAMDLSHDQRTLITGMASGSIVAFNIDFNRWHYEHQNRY

These are yes or no findings as the source states them, for the method shown. Binding seen in cells or lysates may run through a third protein. Some entries that bind do so weakly or less than the wild type. For part of these data: Where a sequence is shown, tags or fusion partners need not be part of it.

Assay [1] has as its target T1, FLAG-tagged SAP102 (mouse) (UniProt P70175).
T1 sequence: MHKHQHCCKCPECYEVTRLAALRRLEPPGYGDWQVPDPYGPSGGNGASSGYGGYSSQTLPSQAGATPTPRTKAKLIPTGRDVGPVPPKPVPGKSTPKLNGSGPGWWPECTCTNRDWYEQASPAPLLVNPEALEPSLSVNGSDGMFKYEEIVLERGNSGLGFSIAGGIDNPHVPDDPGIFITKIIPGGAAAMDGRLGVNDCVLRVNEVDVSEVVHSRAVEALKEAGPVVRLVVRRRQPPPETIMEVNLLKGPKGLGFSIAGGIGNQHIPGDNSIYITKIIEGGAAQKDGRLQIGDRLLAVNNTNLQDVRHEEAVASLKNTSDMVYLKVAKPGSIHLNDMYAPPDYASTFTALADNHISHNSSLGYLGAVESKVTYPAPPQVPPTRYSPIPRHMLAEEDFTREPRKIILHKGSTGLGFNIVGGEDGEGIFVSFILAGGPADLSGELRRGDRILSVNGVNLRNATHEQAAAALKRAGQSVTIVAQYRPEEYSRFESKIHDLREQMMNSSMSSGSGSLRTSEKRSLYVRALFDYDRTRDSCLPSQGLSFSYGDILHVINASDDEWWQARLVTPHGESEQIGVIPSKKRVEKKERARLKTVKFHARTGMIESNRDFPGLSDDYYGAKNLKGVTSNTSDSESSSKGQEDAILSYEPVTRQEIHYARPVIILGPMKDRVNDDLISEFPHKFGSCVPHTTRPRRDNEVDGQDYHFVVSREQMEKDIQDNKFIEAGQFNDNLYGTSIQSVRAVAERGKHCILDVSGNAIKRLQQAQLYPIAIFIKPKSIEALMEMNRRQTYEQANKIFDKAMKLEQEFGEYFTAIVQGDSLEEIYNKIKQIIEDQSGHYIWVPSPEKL
Put plainly: co-IP; lysates of co-transfected HEK293T cells (50 mM Tris pH 7.5, 1% Triton X-100, 1.5 mM MgCl2, 5 mM EDTA, 100 mM NaCl); IP with α-GFP, α-FLAG or α-Nbea antibody on Protein A agarose, 2 h, 4°C; immunoblot. (In general: Immunoblotting shows a protein as a band on a membrane.)

In assay [2] the target is T2, Discs large homolog 3, Synapse-associated protein 102 (mouse (endogenous in mouse brain)) (UniProt P70175).
T2 sequence: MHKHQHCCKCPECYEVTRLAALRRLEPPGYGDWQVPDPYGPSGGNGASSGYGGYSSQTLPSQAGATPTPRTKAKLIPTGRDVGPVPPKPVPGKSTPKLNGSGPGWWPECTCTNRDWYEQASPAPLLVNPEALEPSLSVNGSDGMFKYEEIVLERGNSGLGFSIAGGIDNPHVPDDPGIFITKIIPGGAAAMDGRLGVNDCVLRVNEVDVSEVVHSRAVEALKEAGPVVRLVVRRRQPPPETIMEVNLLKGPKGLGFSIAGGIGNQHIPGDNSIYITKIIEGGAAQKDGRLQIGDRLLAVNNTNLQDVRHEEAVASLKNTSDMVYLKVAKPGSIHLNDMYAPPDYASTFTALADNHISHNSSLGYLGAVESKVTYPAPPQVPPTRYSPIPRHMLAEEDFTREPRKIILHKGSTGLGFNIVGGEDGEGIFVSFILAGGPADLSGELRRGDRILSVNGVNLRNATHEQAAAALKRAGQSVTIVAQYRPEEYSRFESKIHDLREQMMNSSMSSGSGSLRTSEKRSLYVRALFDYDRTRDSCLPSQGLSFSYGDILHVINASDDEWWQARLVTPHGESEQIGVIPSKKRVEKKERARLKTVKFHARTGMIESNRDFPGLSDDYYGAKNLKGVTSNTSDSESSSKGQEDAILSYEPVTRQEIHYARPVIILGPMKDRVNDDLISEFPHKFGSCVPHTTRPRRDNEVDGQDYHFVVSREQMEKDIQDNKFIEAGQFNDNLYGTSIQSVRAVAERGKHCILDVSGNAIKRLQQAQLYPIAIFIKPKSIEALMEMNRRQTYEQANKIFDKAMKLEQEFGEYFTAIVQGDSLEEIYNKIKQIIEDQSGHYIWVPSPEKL
Put plainly: co-IP; reverse IP with two α-SAP102 antibodies (NeuroMab N19/2; GenScript rabbit polyclonal) from the P2+M fraction of P84 WT mice; immunoblot with α-Nbea and α-SAP102; control empty beads.

For assay [3], the target named is C-terminal part of Nbea (Duf, PH, BEACH, WD40) fused to GFP, E2090K (mouse) (UniProt Q9EPN1). As to the kind of experiment: co-IP; lysates of co-transfected HEK293T cells (50 mM Tris pH 7.5, 1% Triton X-100, 1.5 mM MgCl2, 5 mM EDTA, 100 mM NaCl); IP with α-GFP, α-FLAG or α-Nbea antibody on Protein A agarose, 2 h, 4°C; immunoblot.
Assay [4] deals with C-terminal part of Nbea (Duf, PH, BEACH, WD40) fused to GFP, E2218R (mouse) (UniProt Q9EPN1). Described as above.
For assay [5], the target named is C-terminal part of Nbea (Duf, PH, BEACH, WD40) fused to GFP, E2447R (mouse) (UniProt Q9EPN1). The assay is described as above.
Assay [6] concerns the target C-terminal part of Nbea (Duf, PH, BEACH, WD40) fused to GFP, N2302A (mouse) (UniProt Q9EPN1). Described as above.
Assay [7] has as its target C-terminal part of Nbea (Duf, PH, BEACH, WD40) fused to GFP, P2499S (mouse) (UniProt Q9EPN1). The assay is described as above.
In assay [8] the target is C-terminal part of Nbea (Duf, PH, BEACH, WD40) fused to GFP, V2346Q (mouse) (UniProt Q9EPN1). The assay is described as above.
The target of assay [9] is C-terminal part of Nbea (Duf, PH, BEACH, WD40) fused to GFP, V2773I (mouse) (UniProt Q9EPN1). The description is as above.
In a further assay the target is GFP-BEACH (mouse) (UniProt Q9EPN1). The description is as above.
The target in assay [10] is GFP-Duf, PH, BEACH, WD40 (mouse) (UniProt Q9EPN1). The assay is described as above.
Assay [11] deals with full-length Nbea-YFP (mouse) (UniProt Q9EPN1). Described as above.

Turning to “full-length Nbea-YFP (from UniProt Q9EPN1-1 1-2936)”, in assay [1], the binding result is “binds”.

On to “Neurobeachin (from UniProt Q9EPN1-1 1-2936)”, for which the binding result in [2] is reported as “binds”.

B1: FLAG-tagged SAP102 (protein, UniProt P70175 1-849)
chain: MHKHQHCCKCPECYEVTRLAALRRLEPPGYGDWQVPDPYGPSGGNGASSGYGGYSSQTLPSQAGATPTPRTKAKLIPTGRDVGPVPPKPVPGKSTPKLNGSGPGWWPECTCTNRDWYEQASPAPLLVNPEALEPSLSVNGSDGMFKYEEIVLERGNSGLGFSIAGGIDNPHVPDDPGIFITKIIPGGAAAMDGRLGVNDCVLRVNEVDVSEVVHSRAVEALKEAGPVVRLVVRRRQPPPETIMEVNLLKGPKGLGFSIAGGIGNQHIPGDNSIYITKIIEGGAAQKDGRLQIGDRLLAVNNTNLQDVRHEEAVASLKNTSDMVYLKVAKPGSIHLNDMYAPPDYASTFTALADNHISHNSSLGYLGAVESKVTYPAPPQVPPTRYSPIPRHMLAEEDFTREPRKIILHKGSTGLGFNIVGGEDGEGIFVSFILAGGPADLSGELRRGDRILSVNGVNLRNATHEQAAAALKRAGQSVTIVAQYRPEEYSRFESKIHDLREQMMNSSMSSGSGSLRTSEKRSLYVRALFDYDRTRDSCLPSQGLSFSYGDILHVINASDDEWWQARLVTPHGESEQIGVIPSKKRVEKKERARLKTVKFHARTGMIESNRDFPGLSDDYYGAKNLKGVTSNTSDSESSSKGQEDAILSYEPVTRQEIHYARPVIILGPMKDRVNDDLISEFPHKFGSCVPHTTRPRRDNEVDGQDYHFVVSREQMEKDIQDNKFIEAGQFNDNLYGTSIQSVRAVAERGKHCILDVSGNAIKRLQQAQLYPIAIFIKPKSIEALMEMNRRQTYEQANKIFDKAMKLEQEFGEYFTAIVQGDSLEEIYNKIKQIIEDQSGHYIWVPSPEKL
For B1, the binding result is given as “binds” in [3]; “no binding” in [4]; “binds” in assay [5]; “binds” in [6]; “binds” in assay [7]; “binds” in assay [8]. Further, the binding entry in assay [9] is “binds”; in the assay with GFP-BEACH (mouse), “no binding”; in [10] it was “binds”; in assay [11] it was “binds”.
